Experiment [1] deals with T1, tf-NBR1 (tandem-fluorescent RFP-GFP fusion of NBR1) (UniProt Q14596).
T1 sequence: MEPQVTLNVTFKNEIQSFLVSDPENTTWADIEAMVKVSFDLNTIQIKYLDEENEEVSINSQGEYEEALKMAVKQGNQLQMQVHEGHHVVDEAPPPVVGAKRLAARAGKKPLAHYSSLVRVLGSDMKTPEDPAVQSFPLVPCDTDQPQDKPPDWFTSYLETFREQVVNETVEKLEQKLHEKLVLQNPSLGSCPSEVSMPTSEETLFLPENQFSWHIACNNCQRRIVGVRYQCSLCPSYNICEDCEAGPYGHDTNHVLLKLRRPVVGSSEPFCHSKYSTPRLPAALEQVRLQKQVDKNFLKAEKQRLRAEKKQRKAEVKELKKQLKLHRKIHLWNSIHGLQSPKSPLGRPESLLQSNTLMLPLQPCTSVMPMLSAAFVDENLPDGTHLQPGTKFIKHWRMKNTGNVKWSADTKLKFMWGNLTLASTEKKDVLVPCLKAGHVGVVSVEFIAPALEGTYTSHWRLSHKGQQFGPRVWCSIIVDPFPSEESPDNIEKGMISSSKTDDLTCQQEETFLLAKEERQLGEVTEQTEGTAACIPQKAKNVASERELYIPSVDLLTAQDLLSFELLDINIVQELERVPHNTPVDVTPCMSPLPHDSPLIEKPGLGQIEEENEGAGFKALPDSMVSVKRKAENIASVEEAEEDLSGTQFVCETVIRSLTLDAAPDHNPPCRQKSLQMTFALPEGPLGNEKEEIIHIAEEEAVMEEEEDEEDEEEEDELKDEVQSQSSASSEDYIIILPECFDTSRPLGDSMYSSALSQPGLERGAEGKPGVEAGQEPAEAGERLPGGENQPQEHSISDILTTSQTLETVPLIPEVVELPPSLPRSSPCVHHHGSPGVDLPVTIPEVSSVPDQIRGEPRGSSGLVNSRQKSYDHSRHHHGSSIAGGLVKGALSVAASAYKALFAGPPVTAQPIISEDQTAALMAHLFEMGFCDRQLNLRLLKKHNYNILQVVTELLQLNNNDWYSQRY
Nature of the experiment: co-IP; tf-tagged receptor precipitated with GFP-Trap dynabeads from detergent-solubilized K562 extracts (wild type and ATG deletion lines, among them ATG9A KO and FIP200 KO); 50 mM HEPES pH 7.4, 150 mM NaCl, 2 mM EDTA, 1% Triton X-100; 1 h at 4°C; eluate immunoblotted. (A western blot detects proteins with antibodies after separation by electrophoresis.)

Protein sequences, listed by entry. Tags and fused reporters are not part of them.
UniProt Q8TDY2: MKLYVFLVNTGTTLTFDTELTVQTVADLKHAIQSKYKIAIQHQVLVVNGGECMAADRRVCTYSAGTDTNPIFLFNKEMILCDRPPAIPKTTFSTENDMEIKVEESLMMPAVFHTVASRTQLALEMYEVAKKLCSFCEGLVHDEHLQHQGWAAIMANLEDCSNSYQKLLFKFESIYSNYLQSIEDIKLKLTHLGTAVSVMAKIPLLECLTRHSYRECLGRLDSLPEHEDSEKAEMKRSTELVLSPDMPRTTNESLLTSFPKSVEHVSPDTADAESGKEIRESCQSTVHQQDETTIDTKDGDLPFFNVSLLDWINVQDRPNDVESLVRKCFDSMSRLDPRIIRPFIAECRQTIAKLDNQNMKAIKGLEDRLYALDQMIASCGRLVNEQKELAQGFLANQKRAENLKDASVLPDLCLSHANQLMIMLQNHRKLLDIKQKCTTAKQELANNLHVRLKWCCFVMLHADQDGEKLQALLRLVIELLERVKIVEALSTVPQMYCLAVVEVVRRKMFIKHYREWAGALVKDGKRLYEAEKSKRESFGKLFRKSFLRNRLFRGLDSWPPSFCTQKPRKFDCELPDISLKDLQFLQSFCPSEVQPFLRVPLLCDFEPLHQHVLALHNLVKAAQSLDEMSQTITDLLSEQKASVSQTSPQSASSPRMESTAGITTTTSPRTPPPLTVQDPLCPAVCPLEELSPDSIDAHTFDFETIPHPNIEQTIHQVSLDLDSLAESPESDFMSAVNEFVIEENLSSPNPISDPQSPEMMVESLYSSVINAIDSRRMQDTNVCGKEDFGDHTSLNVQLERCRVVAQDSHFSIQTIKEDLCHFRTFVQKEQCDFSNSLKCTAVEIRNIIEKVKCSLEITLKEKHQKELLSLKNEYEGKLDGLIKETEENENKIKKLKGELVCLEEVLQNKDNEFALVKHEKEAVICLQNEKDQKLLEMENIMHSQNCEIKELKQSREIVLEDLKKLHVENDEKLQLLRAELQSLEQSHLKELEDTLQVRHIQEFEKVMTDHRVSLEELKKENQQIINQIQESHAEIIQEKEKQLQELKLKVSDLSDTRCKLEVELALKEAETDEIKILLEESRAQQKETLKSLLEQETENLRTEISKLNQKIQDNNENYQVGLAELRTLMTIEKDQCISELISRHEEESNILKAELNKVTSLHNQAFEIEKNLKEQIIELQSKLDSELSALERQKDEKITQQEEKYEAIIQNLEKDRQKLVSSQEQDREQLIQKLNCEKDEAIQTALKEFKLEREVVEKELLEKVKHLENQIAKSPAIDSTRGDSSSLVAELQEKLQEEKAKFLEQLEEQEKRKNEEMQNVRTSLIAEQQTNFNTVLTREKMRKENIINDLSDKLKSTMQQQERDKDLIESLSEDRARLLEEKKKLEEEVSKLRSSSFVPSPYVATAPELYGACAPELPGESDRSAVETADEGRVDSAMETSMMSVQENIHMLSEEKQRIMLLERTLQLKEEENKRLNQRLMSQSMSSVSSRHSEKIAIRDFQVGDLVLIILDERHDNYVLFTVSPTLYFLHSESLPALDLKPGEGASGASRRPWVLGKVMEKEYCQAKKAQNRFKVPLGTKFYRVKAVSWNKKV
UniProt P10155: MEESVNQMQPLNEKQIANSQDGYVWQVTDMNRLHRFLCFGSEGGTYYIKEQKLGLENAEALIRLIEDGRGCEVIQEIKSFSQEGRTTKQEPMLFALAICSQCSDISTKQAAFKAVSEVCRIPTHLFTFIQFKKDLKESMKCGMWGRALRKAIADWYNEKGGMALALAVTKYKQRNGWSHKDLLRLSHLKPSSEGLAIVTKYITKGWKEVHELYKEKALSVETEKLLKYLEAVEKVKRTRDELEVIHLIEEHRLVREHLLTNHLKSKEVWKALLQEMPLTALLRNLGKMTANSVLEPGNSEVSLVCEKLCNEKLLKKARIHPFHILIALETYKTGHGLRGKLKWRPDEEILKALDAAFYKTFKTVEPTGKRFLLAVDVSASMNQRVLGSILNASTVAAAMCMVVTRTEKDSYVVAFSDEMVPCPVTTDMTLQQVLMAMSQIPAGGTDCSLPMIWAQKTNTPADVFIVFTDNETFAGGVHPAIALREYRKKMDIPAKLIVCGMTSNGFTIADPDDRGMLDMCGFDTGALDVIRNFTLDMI

Experiment [2] deals with TagBFP-V5-TAX1BP1, wild type (UniProt Q86VP1). Nature of the experiment: co-IP; HEK293T cells transfected with TagBFP-V5-TAX1BP1 variants (with myc-TAX1BP1 WT, myc-NBR1 WT or HA-FIP200 where indicated); extracts precipitated with anti-TagBFP magnetic beads; eluates immunoblotted.
The target of the next experiment is TagBFP-V5-TAX1BP1^1–506 (UniProt Q86VP1). The experiment is described as above.
The target in the next experiment is TagBFP-V5-TAX1BP1^A114Q (UniProt Q86VP1). Described as above.
Experiment [3] addresses tf-TAX1BP1 (tandem-fluorescent RFP-GFP fusion of TAX1BP1) (UniProt Q86VP1). Nature of the experiment: co-IP; tf-tagged receptor precipitated with GFP-Trap dynabeads from detergent-solubilized K562 extracts (wild type and ATG deletion lines, among them ATG9A KO and FIP200 KO); 50 mM HEPES pH 7.4, 150 mM NaCl, 2 mM EDTA, 1% Triton X-100; 1 h at 4°C; eluate immunoblotted.
The target in experiment [4] is TagBFP-V5-TAX1BP1, wild type (UniProt Q86VP1). Nature of the experiment: co-IP; HEK293T cells transfected with TagBFP-V5-TAX1BP1 variants (with myc-TAX1BP1 WT, myc-NBR1 WT or HA-FIP200 where indicated); extracts precipitated with anti-TagBFP magnetic beads; eluates immunoblotted. The source holds these as a separate data set.

Where two headings read alike, the source gives them in different places. These are yes or no findings as the source states them, for the method shown. In cells and extracts the contact can be indirect. Some results given as binding are weak or reduced against the parent protein; the word gives no strength. For part of these data: Where a sequence is shown, tags or fusion partners need not be part of it.

With “TAX1BP1, endogenous (from UniProt Q86VP1-1 1-789)”, the binding result in experiment [1] is recorded as “binds”.
Consider “myc-TAX1BP1^WT (from UniProt Q86VP1-1 1-789)”, for which the binding result (in experiment [2]; with TagBFP-V5-TAX1BP1^1–506) was “binds” in each case.
Regarding HA-FIP200 (from UniProt Q8TDY2 1-1594), the binding entry in the experiment with TagBFP-V5-TAX1BP1^A114Q is reported as “no binding”.
Consider “TROVE2, endogenous (from UniProt P10155 1-538)”, for which, in experiment [1], the binding entry is reported as “binds”.
In the case of “SQSTM1, endogenous (from UniProt Q13501 1-440)”, in experiment [3], the binding result is listed as “binds”.

B1: NDP52, endogenous (protein, UniProt Q13137 1-446)
chain: MEETIKDPPTSAVLLDHCHFSQVIFNSVEKFYIPGGDVTCHYTFTQHFIPRRKDWIGIFRVGWKTTREYYTFMWVTLPIDLNNKSAKQQEVQFKAYYLPKDDEYYQFCYVDEDGVVRGASIPFQFRPENEEDILVVTTQGEVEEIEQHNKELCKENQELKDSCISLQKQNSDMQAELQKKQEELETLQSINKKLELKVKEQKDYWETELLQLKEQNQKMSSENEKMGIRVDQLQAQLSTQEKEMEKLVQGDQDKTEQLEQLKKENDHLFLSLTEQRKDQKKLEQTVEQMKQNETTAMKKQQELMDENFDLSKRLSENEIICNALQRQKERLEGENDLLKRENSRLLSYMGLDFNSLPYQVPTSDEGGARQNPGLAYGNPYSGIQESSSPSPLSIKKCPICKADDICDHTLEQQQMQPLCFNCPICDKIFPATEKQIFEDHVFCHSL
Turning to B1, the binding entry in experiment [1] and in experiment [3] was “no binding” in each case.

B2: TBK1 (enzyme, UniProt Q9UHD2 1-729)
chain: MQSTSNHLWLLSDILGQGATANVFRGRHKKTGDLFAIKVFNNISFLRPVDVQMREFEVLKKLNHKNIVKLFAIEEETTTRHKVLIMEFCPCGSLYTVLEEPSNAYGLPESEFLIVLRDVVGGMNHLRENGIVHRDIKPGNIMRVIGEDGQSVYKLTDFGAARELEDDEQFVSLYGTEEYLHPDMYERAVLRKDHQKKYGATVDLWSIGVTFYHAATGSLPFRPFEGPRRNKEVMYKIITGKPSGAISGVQKAENGPIDWSGDMPVSCSLSRGLQVLLTPVLANILEADQEKCWGFDQFFAETSDILHRMVIHVFSLQQMTAHKIYIHSYNTATIFHELVYKQTKIISSNQELIYEGRRLVLEPGRLAQHFPKTTEENPIFVVSREPLNTIGLIYEKISLPKVHPRYDLDGDASMAKAITGVVCYACRIASTLLLYQELMRKGIRWLIELIKDDYNETVHKKTEVVITLDFCIRNIEKTVKVYEKLMKINLEAAELGEISDIHTKLLRLSSSQGTIETSLQDIDSRLSPGGSLADAWAHQEGTHPKDRNVEKLQVLLNCMTEIYYQFKKDKAERRLAYNEEQIHKFDKQKLYYHATKAMTHFTDECVKKYEAFLNKSEEWIRKMLHLRKQLLSLTNQCFDIEEEVSKYQEYTNELQETLPQKMFTASSGIKHTMTPIYPSSNTLVEMTLGMKKLKEEMEGVVKELAENNHILERFGSLTMDGGLRNVDCL
For the molecule B2, the binding result in experiment [4] was “binds”.

For the origin of these results see PMC7737610.
